Measured values as given in the supplement of paper PMC11417369.
The other results are listed elsewhere or left out.

tested on: PfSIP2 AP2 domain 1 (GST-tagged); assay: gcPBM binding intensity (ln(normalized median fluorescence intensity)); higher = stronger DNA binding
In short: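 Each value is the highest Masliner-normalised natural-log median intensity across replicate spots of either orientation of a probe. The probes were primer-extended double-stranded 36-bp intergenic genomic sequences on an Agilent 4 × 180k array, alongside negative controls, exposed for 1 h to GST-tagged P. falciparum DNA-binding domains expressed in E. coli. Bound protein was picked up with Alexa488 anti-GST antibody and scanned at 488 nm.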

Row | Sequence | gcPBM binding intensity (ln)
1 | TTATTTACATCAAGTACATGCAGTAAAAAAAAAAAA [TGCATGCA_site351] | 7.07
2 | CACCAATTCCTATGCACACACATCTGCATATTATAT [CACACA_site5049] | 7.55
3 | ATATAATATATGTATACACACATATTATATAATATT [CACACA_site3699] | 6.8
4 | ATGAACAGTTCATGTTGTACAATCTCCATTTTTTAC [XGTACX_site3933] | 6.89
5 | CAATATAAAAAACACACACACAAACATATATTTATA [CACACA_site3703] | 6.97
6 | TGTCGGCTTAGATTAGTGCACTGAAAAATGAAGTAT [GTGCAC_site9919] | 10.5
7 | TATTTATATAAAAATACACACATGAATGGATATATA [CACACA_site6335] | 6.91
8 | TTTCGATTAAAAATTGTACAATATAAGGAGCACACA [GTGCAC_negctrl_site476] | 7.5
9 | AACCACAGACATATAACACACATATACAATATATAT [CACACA_site5142] | 7.3
10 | CTTTTTTTGACCTTAGTGCAAATAACTATATATTAT | 7.79
11 | TAAAAAAAAAAATGAACATGCAACAATTGTGATGAA [TGCATGCA_site332] | 6.61
12 | ACTGTAACAATCATGGGTACAAATAAAATAATATCT [XGTACX_site99] | 7.16
13 | ATGAAAATTATAAAGTGTACATATAGAAACATTTAC [XGTACX_site8047] | 6.98
14 | TTTTGTCTTATATGTTGTACAACGTAAACAAAAAAA [XGTACX_site4412] | 7.52
15 | AAAAGAATATATAATTGTACTTAAAATATAATTAAG [XGTACX_site4484] | 6.86
16 | AAAAAAATTAAACATGAAGAATAAGGAACAAAAAAA [CACACA_negctrl_site1607] | 6.9
17 | TTTAATCATATGTTATATAATAAGCCCCCCCCCCAA [CACACA_negctrl_site486] | 10.2
18 | ATTTAAGTAGTACATACACACACATATACAAAAAGA [CACACA_site9317] | 7.39
19 | ATGGGACATATATATACACACATATATATATATATA [CACACA_site1202] | 9.42
20 | ACATCTCTTATATATTCACACACATATATATAATTA [CACACA_site8424] | 7.34
21 | TTAAAAAATTTTTAAGCACACACATAGATAATATAT [CACACA_site8440] | 7.27
22 | TTTTTTTTTTAATTCGCACACTGTCTTCATGCAATT [CACACA_site4882] | 8

Row | Sequence | gcPBM binding intensity (ln)
23 | GCACATCTATATGAAACACACATGGAAACATCTCTT [CACACA_site7793] | 7.07
24 | AGCATTAAAAATGGAATGGAATTAAGCTATATATTA [CACACA_negctrl_site1571] | 6.63
25 | GAAACTTCAAGAAATGCACACAATAAAATAAATAAA [CACACA_site1549] | 7.65
26 | AGTATATATTATATATATATATATATATTATATATG [TGCATGCA_negctrl_site99] | 7.34
27 | ATAGAATATTATATTACACACAGAATAATAAAAAAT [CACACA_site86] | 6.92
28 | CATTTCGAAAAAAAATGTACTTATTATATTTATATA [XGTACX_site6752] | 6.8
29 | TGTATATATTATAAAAGTACATAATATTCTTAGATA [XGTACX_site5623] | 6.84
30 | TTATCTTACATAAATTATAACAATAATATGTGTATA [XGTACX_negctrl_site379] | 6.7
31 | ACCATACATACATACACACACACACCCATATATATA [CACACA_site2917] | 7.52
32 | TTTCATGTTTTAAAGTGTACATAAATATATTATATG [XGTACX_site3367] | 7.15
33 | TTGTGTTTGCGTAAATGTACGGAAAGACTTGAAGAC [XGTACX_site7235] | 7.66
34 | TTTTTAATAAAATGATTGATAATTATTAAATTAAAA [CACACA_negctrl_site488] | 6.53
35 | TTGTTAGAGTATATTGAAAGGATAACCTTTTTTTAT [XGTACX_negctrl_site122] | 6.7
36 | TAACATATCTTTAATACACACTTAAAAAAGTACTTA [CACACA_site4532] | 6.97
37 | ACACTTAAATATTGTTGTACAAAATGATAAAATGTA [XGTACX_site4588] | 7.13
38 | GGAAACACAATATATACACACATATATATATATATA [CACACA_site235] | 9.14
39 | TTGATGTATACAATGTAGATTATTTAATATTTCAAT [GTGCAC_negctrl_site203] | 6.75
40 | TTATATAACCCTCATGCATGCTAAGAAAAAAAAAAC [TGCATGCA_site936] | 7.07
41 | ATTTATATTATAATATGTACACAAAAAAAATTAGGA [XGTACX_site565] | 7.19
42 | TAAAAAGGAAAACACACACACACATATATATATATA [CACACA_site3588] | 9.59
43 | ATTTTTAAGCATATCAAAAAAAAAAAAAAAATTAAT [CACACA_negctrl_site980] | 6.73
44 | TTATTATTAAGACACACACACAAAAAAAAAAAAAAA [CACACA_site6805] | 7.23

Row | Sequence | gcPBM binding intensity (ln)
45 | TTTCCAATTAGTTTTGCATGTTGAAAAAATGTTGGA [TGCATGCA_site1035] | 6.8
46 | TATTTTAACTTCTCATGTACATATATTATGTCTATA [XGTACX_site249] | 7.22
47 | TATCATAAACTTCCTTACTATACTTTTCTTATTCAT [CACACA_negctrl_site1341] | 6.85
48 | CTTTGTAGTATATTAACACACAACTATTTATAATAT [CACACA_site3934] | 7.1
49 | TAGATACAGAAACACACACACACATACATATATACA [CACACA_site3437] | 6.99
50 | TTATGGAGAGTTATATGTACGAAAAATATGTATAAG [XGTACX_site515] | 7.27
51 | AGAATTATTGTTAATGCATGTGGAAGTTAAAATATT [TGCATGCA_site188] | 7.25
52 | TATTTAAATTGTAAGTGTACATATATAAATGTAAAA [XGTACX_site1609] | 7.11
53 | TATATAGTAATTTATTCACACAATTGGCACACCTCA [CACACA_site4679] | 6.98
54 | TATAATATATATTTGTGTCCACAACATTTTTAATAT [XGTACX_site2089] | 7.25
55 | TAGATACATACACGCACACACATATATAAATAAATA [CACACA_site6157] | 7.47
56 | TTACGTATGTATTATGTTGTATATGAAATTAAAAAA [GTGCAC_negctrl_site292] | 7.09
57 | AAAAAAAACAGACACACACACATACACATACATACA [CACACA_site2857] | 7.14
58 | TAATTATGTACTATTATACACACGTTTAATTGTAAA [CACACA_site206] | 7.15
59 | AATAATATATGGTGTACACAAAAGTATAAATAATTT [CACACA_site5338] | 7.15
60 | TATAAAAAAATAATAAATAAATAAAAAGATTTCTTT [TGCATGCA_negctrl_site122] | 6.78
61 | TTGTGAATAACTAAGAAGAAAAAGATAAATATGTAT [TGCATGCA_negctrl_site388] | 7.14
62 | TATTCATGCATATACACACACATATATTTATATTTT [CACACA_site7786] | 7.11
63 | AATAATATTGAAATGTGTACGTATTTATATTTTATG [XGTACX_site8252] | 7.01
64 | TTTTGTTATATTCAATATTTATATATTATAAATATA [CACACA_negctrl_site1705] | 7.21
65 | TTTTTCTTTTTTACAGTGCATAAATATATGTATTGT [GTGCAC_site9399] | 7.9
66 | AGCCATTATAATTCTTGTACATAATATAGCTATTTT [XGTACX_site1723] | 6.98

Row | Sequence | gcPBM binding intensity (ln)
67 | GAGCACCAAAATATATGTACATATGATAAATGTGAA [XGTACX_site1130] | 7.32
68 | ACATATATATAATATATATTTTTCGTGTGGTGTCAC [CACACA_negctrl_site543] | 6.97
69 | ATCATTGAAGTTAAAAATATAAAGTATTCAGAAGGG [XGTACX_negctrl_site560] | 7.26
70 | AATATATATATAGGATGTACACATAATTCAAATATA [XGTACX_site2755] | 7.16
71 | TCACTTTTATAATATAATATTCTATATCTTATTTTT [GTGCAC_negctrl_site717] | 6.95
72 | TTTTTTATTTTATTTTTTTCTGCTTATCCACATTAG [XGTACX_negctrl_site108] | 7.01
73 | TTTACACTTTTTTTTGTACACACTAATAAGATTAAC [CACACA_site9304] | 7.31
74 | TTTTAATTAAATACAAAAAAAAAAAAAAAAAAAAAA [CACACA_negctrl_site1631] | 6.78
75 | AAAAAAATTTTTAAAAGTACATTAATATTAATATGT [XGTACX_site5177] | 7.06
76 | ACATTACAATTATTATAATCAATATATAACCTCTAA [TGCATGCA_negctrl_site105] | 7.2
77 | AAATATATTTTTTTTTGTACTCAAAAAGAAAAAAAA [XGTACX_site8540] | 7.02
78 | ATAAAATTATATACTCGTACACAAAAAAAAAAAATA [XGTACX_site6035] | 6.91
79 | AAAAATTGAATGATGTGTACTTAAAAGAATATAGAA [XGTACX_site6588] | 7.06
80 | TATATAATAACATATGCATGCAAGTAATATAACCAA [TGCATGCA_site324] | 7.38
81 | TATAATATATATGTAACACACAAAAGTTATATACTT [CACACA_site2868] | 7.1
82 | ATATATTATATTTAAGTGCATTAATTAAAATGCTTA [GTGCAC_site9403] | 7.93
83 | AAAAAAAATCAGACAGGTACACATTCCATGTTCAAA [XGTACX_site5380] | 6.92
84 | CATTAATATATATATAGTACATATACACCTTCATTA [XGTACX_site8473] | 7
85 | AAAATAAATATAAAATGTACTTATATATATATATAT [XGTACX_site7803] | 9.08
86 | ATAATTAAATAAAAAAGTACACATACATCATAATGC [XGTACX_site7656] | 7.11
87 | CAATTAAAAAATAATACATGCATATAAATAGATATT [TGCATGCA_site427] | 6.88
